Measured values taken from patent publication US20230348629A1 (BEIJING MABWORKS BIOTECH, published 2023).

How the values were obtained:
[1] = target: T1, human VEGF-A molecules (Cat #:11066-HNAN, Sino Biological) (human, UniProt P15692-4 27-191); assay: SPR (BIAcore 8K), human VEGF-A coupled to the chip, antibody injected
T1 construct: Bought protein; also called human/monkey VEGF; VEGF molecules
T1 sequence (looked up): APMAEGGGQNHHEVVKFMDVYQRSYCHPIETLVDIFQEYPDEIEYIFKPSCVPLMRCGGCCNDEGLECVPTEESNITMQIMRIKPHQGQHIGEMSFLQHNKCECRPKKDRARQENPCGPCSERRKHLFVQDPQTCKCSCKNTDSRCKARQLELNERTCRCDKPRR
From the text: Using BIAcore™ 8K instrument (GE Life Sciences, US), the binding affinity of the bispecific molecules of the disclosure to human TIGIT and VEGF was quantitatively measured. Briefly, 100-200 response units (RU) of human TIGIT-his protein (Cat #:10917-H08H, Sino Biological, CN) or human VEGF-A (Cat #:11066-HNAN, Sino Biological, CN) were coupled to CMS biosensor chips (Cat #:BR-1005-30, GE Life Sciences, US). The un-reacted groups were then blocked with 1M ethanolamine Serially diluted antibodies at concentrations ranging from 0.3 μM to 10 μM were injected into the SPR running buffer (HBS-EP buffer, pH7.4, Cat #:BR-1006-69, GE Life Sciences, US) at 30 μL/min. The binding affinity was calculated with the RUs of blank controls subtracted, and the association rate (kₐ) and dissociation rate (kd) were determined using the one-to-one Langmuir binding model (BIA Evaluation Software, GE Life Sciences, US). The equilibrium dissociation constant KD was calculated as the kd/kₐ ratio.

[2] = target: T2, human VEGF-C-his molecules (Cat #:VEC-H4225, Acrobiosystems) (human, UniProt P49767 103-227, limits assumed); assay: ELISA, plate coated with human VEGF-C-his, antibody titrated (axis labelled MFI)
T2 construct: Bought protein; not shown: his tag
T2 sequence (looked up): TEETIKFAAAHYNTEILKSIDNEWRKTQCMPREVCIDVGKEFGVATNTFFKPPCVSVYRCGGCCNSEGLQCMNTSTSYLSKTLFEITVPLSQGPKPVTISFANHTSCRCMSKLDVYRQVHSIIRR
Description: Briefly, an ELISA plate was coated with 100 μl 500 ng/ml human VEGF-A molecules (Cat #:11066-HNAN, Sino Biological, CN), mouse VEGF-A molecules (Cat #:50159-MNAB, Sino Biological, CN), human VEGF-B-his molecules (Cat #:VE6-H5225, Acrobiosystems Co., CN) and human VEGF-C-his molecules (Cat #:VEC-H4225, Acrobiosystems Co., CN) respectively overnight at 4° C. […] The ELISA plate was added with freshly prepared Ultra-TMB (Cat #:555214, BD, USA), and left still for 5 min for color development. The absorbance was read at 450 nm using SpectraMax® i3X microplate reader.

Kd [1]: 127 pM
B1: MBS310-7 (bispecific antibody, human IgG1, kappa)
heavy: EVQLVESGGGLVQPGGSLRLSCAASGYTFTNYGMNWVRQAPGKGLEWVGWINTYTGEPTYAADFKRRFTFSLDTSKSTAYLQMNSLRAEDTAVYYCAKYPHYYGSSHWYFDVWGQGTLVTVSSASTKGPSVFPLAPSSKSTSGGTAALGCLVKDYFPEPVTVSWNSGALTSGVHTFPAVLQSSGLYSLSSVVTVPSSSLGTQTYICNVNHKPSNTKVDKKV[sequence of human IgG1 Fc not given]GGGGSGGGGSGGGGSQVQLVQSGAEVKKPGASVKVSCKASGYTFTSYNVHWVRQAPGQGLEWMGTIYPGNLATSYNQKFKGRVTLTADTSTSTVYMELSSLRSEDTAVYYCARSGTMDYWGQGTTVTVSSGGGGSGGGGSGGGGSGGGGSEIVLTQSPGTLSLSPGERATMTCRASSSISSTYLHWYQQKPGASPKLLIYNTQNLASGVPARFSGSGSGTSYTLTISRLEPEDEAVYYCQQFGGYPLITFGAGTKLTAKR
light: DIQMTQSPSSLSASVGDRVTITCSASQDISNYLNWYQQKPGKAPKVLIYFTSSLHSGVPSRFSGSGSGTDFTLTISSLQPEDFATYYCQQYSTVPWTFGQGTKVEIKRTVAAPSVFIFPPSDEQLKSGTASVVCLLNNFYPREAKVQWKVDNALQSGNSQESVTEQDSKDSTYSLSSTLTLSKADYEKHKVYACEVTHQGLSSPVTKSFNRGEC
notes: also called MBS30-7; symmetrical anti-VEGF/TIGIT bispecific antibody
binding result [2]: no binding (tested: about 100 nM (LOG.Con about 2))
